# Measurements taken from the supplement of paper PMC11417369.
# The list shows a part of the results.
# Tested on: PfAP2-HC AP2 domain (GST-tagged)
# Assay: gcPBM binding intensity (ln(normalized median fluorescence intensity)); higher = stronger DNA binding
# Procedure, shortened: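 DNA-binding domains from P. falciparum, fused to GST and produced in E. coli, were put on an Agilent 4 × 180k double-stranded probe array for 1 h in 1× PBS holding 1% milk, 0.2 mg/ml BSA, 0.5% salmon testes DNA and 0.03% Triton X-100. Probes were primer-extended, 36 bp long and drawn from intergenic genomic regions, with negative controls included. After Alexa488 anti-GST antibody detection and a 488 nm scan, binding intensity was set as the highest Masliner-normalised natural-log median intensity across replicate spots of either probe orientation.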
row,Sequence,gcPBM binding intensity (ln)
1,TAAATCAAAATAATTTAACACACAATTTTAATACTG [CACACA_site8744],9.7
2,GATAAGGTATTCAAATGTACAAAATGTTTTATATAA [XGTACX_site6863],9.59
3,TATATGATATAATATACACACATACAGATATATATA [CACACA_site4440],9.89
4,AAATTATTAAGTGATATAATATTCTATAGATGGGGA [CACACA_negctrl_site168],9.66
5,TTTTCCAATTTAAAAGCATGCATCTGTTTTTTTTTT [TGCATGCA_site482],9.53
6,TAGAGGTATAAAATATGTACTTATAAAAACATGAAT [XGTACX_site8916],9.64
7,AGAGGTAGAGAGAAAACATGCATAATGATTTTCATA [TGCATGCA_site958],9.56
8,ATATATATTATATAAGTGCATAATATTCTTTCTTTT,9.61
9,TTTTTTTATCAATGTTGTACTTTTTTTTTTTTCCAT [XGTACX_site8864],9.67
10,TATATATTTTGTGTCTGTACACATATTATTAATTCC [XGTACX_site7507],9.67
11,TTCAAATATAAATACACACACATAGCTACAAAATAA [CACACA_site4172],11
12,TACACGCATGGACACACACACACACCCATATATATA [CACACA_site4522],11
13,TATAAGAGAATATATACACACAAAAATATATACAGT [CACACA_site1668],10.1
14,TTCTTAAAAGGAAAGGTGCAACTTTATCATTTTCTT,9.45
15,TAAATACATAAATACACACACATATATTATATATAT [CACACA_site4310],10.9
16,ATATTAACTATCATAACACACACAGTAGACATATTT [CACACA_site6941],10.3
17,TATCATATATAAAGAGGTACGTAAGAATAGAAAATT [XGTACX_site798],9.99
18,TATAATTATATGTATACACACACATACATTTACATA [CACACA_site9061],10.5
19,AAAATGAAAATGAAAATGAAAATGGGAAAATGTCAA [TGCATGCA_negctrl_site488],9.83
20,TTATATATAAGTTTATTCATTTTTTTTTTTTTTTTT [XGTACX_negctrl_site573],9.23
21,TAAATAAAAAAGAATACACACAGCATGCATAAATAT [CACACA_site237],10.1
22,CATATATATCGTAATGCACACATGTAATTTCATAAT [CACACA_site811],9.9

row,Sequence,gcPBM binding intensity (ln)
1,TCTGTATATTATTCAAGTACACAATATAAATATAAA [XGTACX_site7241],9.49
2,AAAAAATTCAAAAGGTGTACAACATTATATTATTCC [XGTACX_site5118],9.77
3,TATTGTTTTTTTTACTGTACACAAGTAAATGAAAAA [XGTACX_site790],9.45
4,GTATATAATTAAAGTTGTACCCTTAAAAAAGGGAAA [XGTACX_site7278],9.5
5,GATAACTTTTTTCTCACACACAAATATTTTAATCAT [CACACA_site7685],10
6,GAACAAATTAAATAGGTGCATTAACATGTTCTATTT [GTGCAC_site9729],9.83
7,AAAAATAAAAAAATAAATACGTATACATATATAATA [TGCATGCA_negctrl_site551],9.85
8,TAAATGTGAACAATAGAAGTAATAAGAAGAATAAAA [CACACA_negctrl_site1080],9.78
9,TTTATTTTTTGTGGCACACAGAAGAAACAAGAACAA [CACACA_site1696],9.73
10,AATGAATAATTATTTTGTACATAATATTATATTTAT [XGTACX_site5350],9.67
11,AATAGTAATTTGAATACACACAATAATATATTTATA [CACACA_site7055],9.74
12,TAACACCAAACTAAATGTACACACATACATAAATAT [XGTACX_site2201],10
13,TCTTATATGATATTTATTTATTTATTTATTTATTCA [GTGCAC_negctrl_site686],9.64
14,GGAATAGTAATATATACACACAAATACATATATATA [CACACA_site67],9.98
15,TTTATTTTTTAATGATGTACTATTTATCCAGAAAAG [XGTACX_site7750],9.28
16,AAATTAAATGTAAGCACACATAAATTATACTCATAT [CACACA_site5782],9.83
17,ACTTATACAAAATGTGCATGTTATATTTACAATAAT [TGCATGCA_site108],9.67
18,ATAAGCTCATGCAGGTGTACACAAAAAGAAAAAAAA [XGTACX_site2433],9.79
19,ATAATGAAAAGGAACATACACACCCCATATAAATAT [CACACA_site3442],10.3
20,AAAATATATATTAACACACACACAAAAAAAAAAAAA [CACACA_site1325],11.2
21,GAAAATTATATGTGTTGTACACTTGCAACAACTATT [XGTACX_site3637],9.76
22,TTTTATAATGTTGTAGTGCAAAATACGTATATTTAT [GTGCAC_site9826],9.63

row,Sequence,gcPBM binding intensity (ln)
1,AATAAATATATGTACACACACAAATATATACATATC [CACACA_site1903],10.2
2,AATATATGGTTTCATTATATTAAATTCAATTTAATG [CACACA_negctrl_site675],9.42
3,GGTGGCTAAATTACAACACACGACGGAATATTATAT [CACACA_site4114],9.77
4,ACCGTGGGAAGACACACACACACACCCACATATATA [CACACA_site333],11
5,AGTATATAATAATTTACACACAAAAAAATATCAGGA [CACACA_site3517],10
6,TGATTTATCTATATTTTATAAGTTATTTATTTTTTT [CACACA_negctrl_site1603],9.51
7,TTTTATTCATTGAGCACACAAAATAAATTATCAAAA [CACACA_site3279],9.44
8,ATATAAATATTTATTAGTACACATTAGTGTAGTTTT [XGTACX_site4493],9.58
9,CTATATTATTTTTCTTGTACGTAGGAAATATAGCTA [XGTACX_site6176],9.35
10,TCTTGAAAAAGAATCAATCGGTCGACAAAAAAAAAA [CACACA_negctrl_site1099],9.82
11,ATATTCTTGTTTAATACACACTGTAGTATTATAGAT [CACACA_site6341],9.78
12,TTTTTTAATATTTATTAATTAAACTTTGTTTTTGTT [XGTACX_negctrl_site454],9.64
13,AAAAAACACTTAAGGTGTACCTTTTAATATAAGTAT [XGTACX_site2397],9.72
14,GACAAATAATAAAAGGTGCATTATACTTAACAAAAA [GTGCAC_site9624],9.67
15,AAAATGAACAAACACACACACATATATATATATATA [CACACA_site2403],11.2
16,AAAAATGTATGTATGGTGCAGTATTCATATCATTTT [GTGCAC_site9458],9.73
17,TTATTGTGTAAGATGATTTTCTTCGTCACTTTGAAA [CACACA_negctrl_site1814],9.37
18,TGTGTATATAAATAATGTACATATATATTTTTTTAT [XGTACX_site7341],9.64
19,GTAAAAAAAAAAAAAAGTACATTATACATATATTTA [XGTACX_site5447],9.52
20,AACCATAACTCATATGCACACATAAATATTACATAT [CACACA_site9273],10.2
21,TGGAGGATAGTTCACAGTACCCAGTAACTCTACGGA [XGTACX_site4930],9.43
22,AAAGTATAAATAAATACACACATATATATATATATA [CACACA_site2892],9.84

row,Sequence,gcPBM binding intensity (ln)
1,TACATTCGGAGTAAAAAAAAATTTATACAATTACTT [XGTACX_negctrl_site29],9.44
2,TATATATTATATATATGTACATAATTCCATGTTTAG [XGTACX_site3943],9.6
3,AACTCTTAAAAATAAACATGCAAATATTTACCTTCT [TGCATGCA_site986],9.57
4,CTTGAAAGATTTTATTGTACTCATAAGATACATTTC [XGTACX_site3178],9.35
5,TCATACAATATTAAATGTACATATATATATATATAT [XGTACX_site8828],9.67
6,ATATTAAAGCCTTTTTGTACATATAAATAAACATAG [XGTACX_site4667],9.55
7,TTGAAAATAATATGAAGTACATTATTTTTTTTTAAT [XGTACX_site4499],9.43
8,AAAAATATTTAAAATACACACATATATATAATATAT [CACACA_site2006],9.9
9,AAAACTTTCCATGTTTGTACATAAAATATAATAATT [XGTACX_site2716],9.61
10,TTTTTTTTCTTTTTTTTTTTTTCAAAAGCTTATAAT [CACACA_negctrl_site1526],9.32
11,TGTATAATCATATATACACACACATATATATATATA [CACACA_site8674],10.1
12,TTATATAAAAAAAAATGTACATATAATTGGTAAATT [XGTACX_site5180],9.66
13,GTGTATTTGGTGCGCACACACATGCAAAAAGAAATA [CACACA_site4768],10.1
14,CACAAAAATGTAATCACACATATATATATATATATA [CACACA_site5818],9.52
15,AAAAAATGAAAATATTCCAAAATAGAGGGAAATGTA [GTGCAC_negctrl_site572],9.69
16,TATGTGATAACACGCACACAAATGTATTTAATTTAT [CACACA_site5435],9.87
17,ATTCTAATAATATATACACACACATATATATTTATA [CACACA_site8629],9.99
18,TTATATTTATATATTTGTACGTATGTATATAATTCA [XGTACX_site2993],9.55
19,CTTTTTTAAAATATTTAACACACAATTTTAATGCAT [CACACA_site9303],9.66
20,AAAATTAGGAGACATGCATGTAACGATAAATATAAC [TGCATGCA_site148],10.3
21,TAATTTTTATTCAAGAGTACACAAAAGATAACTAAA [XGTACX_site4060],9.16
22,TAAAAAAAATCATTCACACATATATGAAAAAAAAAA [CACACA_site5546],9.64
